# In all, about 420,000 compounds went through this assay and about 64,000 (15%) were called active. The inconclusive results got no clear call from the source; some entries with a clear call stand among them for comparison. Calls follow the shape of the dose curve; as a rule, active = well fitted inhibition curve with a large enough effect; inconclusive = small, poorly fitted or top-dose-only effect; inactive = flat fitted curve, though single readings scatter. No potency is given beside an inconclusive call; the fits are too rough.
# Experiment: qHTS for Inhibitors of human tyrosyl-DNA phosphodiesterase 1 (TDP1): qHTS in cells in absence of CPT; also: nearly all actives have a fitted effect of over 55% in size
# Conditions: DT40 Tdp1-/- hTDP1 cells, no CPT, ATP luminescence, 48 h; activity change, negative = growth inhibition: at 46.2 µM (top of the series) unless noted
# In short: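 Camptothecin absent (DMSO only). Human TDP1-complemented DT40 knockout cells, 400 cells/well, 37 °C for minimum 48 hr; ATP measured via CellTiter-Glo, 30 min dark incubation, luminescence.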
# % is scaled to controls: 0 for no effect and ±100 for the full control effect; potency is read from the fitted curve at half-maximal effect; tags tell the direction and shape of the fitted curve.
Structure (SMILES),Potency,"activity change, negative = growth inhibition"
COc1cccc(CNC(=O)c2cc3c(=O)oc4ccc(C)cc4c3s2)c1,active: 20.6 µM,–
Nc1ncnc2c1ncn2[C@@H]1O[C@H](C(=O)NCc2ccc(OC(F)(F)F)cc2)[C@@H](O)[C@H]1O,–,inactive: -3.66%
CCc1ccccc1NC(=O)CN1CCN(CC(=O)Nc2cc(C)ccc2OC)CC1,active: 6.51 µM,–
O=C(Nn1c(SCc2ccc(F)cc2)nc2ccsc2c1=O)c1ccccc1,–,inconclusive: -31.7% [inhibitor]
O=C(CCCN1C(=O)c2ccccc2C1=O)NCCCN1CCOCC1,–,inactive: 0.905%
COC(=O)[C@@]1(Cc2ccc(F)cc2)[C@H]2c3cc(C(=O)N4CCCC4)n(CCO)c3C[C@H]2CN1C(=O)c1ccccc1,–,inactive: -21.7%
Cc1cc(C)cc(S(=O)(=O)Cc2noc(C(=O)NCc3ccccc3)c2C(=O)NCc2ccccc2)c1,"inconclusive [inhibitor, single point]",–
Cn1cc(/C=C/C(=O)N2CCCC(C(=O)c3cccc(C(F)(F)F)c3)C2)cn1 (stereo unspecified),"inconclusive [inhibitor, partial curve]",–
Cc1cccc2cc(CN(Cc3cccs3)C(=S)NCC3CCCO3)c(=O)[nH]c12 (stereo unspecified),"inconclusive [inhibitor, single point]",–
Cc1ccc(-c2nnc(CN3CCCCC3C)o2)cc1 (stereo unspecified),–,inactive: 0.565%
Cc1ccc2nc(-c3ccccn3)cc(C(=O)Nc3ccc4c(c3)OCO4)c2c1,"inconclusive [inhibitor, single point]",–
COc1ccc(NC(=O)c2cccc(N3C(=O)C4C5C=CC(C5)C4C3=O)c2)cc1 (stereo unspecified),"inconclusive [inhibitor, single point]",–
O=C(c1ccc(N2C(=O)c3ccccc3C2=O)cc1)N1CCCCC1,–,inactive: 5.35%
COc1cc2c(cc1OC)C1Cc3ccc(OC)c(OC)c3CN1CC2 (stereo unspecified),active: 7.31 µM,–
C/C(=N\NC(=O)c1cccc(O)c1)c1cccc(NC(=O)c2ccc(F)cc2)c1,"inconclusive [inhibitor, single point]",–
O=C(CN1CCN(c2ccc(Cl)cc2)CC1)N1CCCC1,"inconclusive [inhibitor, partial curve]",–
N#Cc1ccccc1Sc1ccccc1C(=O)NCC(c1ccco1)N1CCCC1 (stereo unspecified),"inconclusive [inhibitor, partial curve]",–
O=C(NC(=S)Nc1ccc(Cl)cn1)c1cc([N+](=O)[O-])ccc1N1CCOCC1,–,inactive: 4.01%
CC(=O)N1CCN(C(=O)COC(=O)c2ccc(S(C)(=O)=O)cc2)CC1,–,inactive: 7.88%
O=C1NC[C@H](CC2CCCCC2)N(CCc2cc(C(F)(F)F)cc(C(F)(F)F)c2)C1=O,"inconclusive [inhibitor, single point]",–
CCOC(=O)c1cccc(N2C(N)=NC(N)=NC2(C)C)c1,active: 4.11 µM,–
O=C(CCCN1C(=O)/C(=C/c2cccc(Br)c2)SC1=S)NCCCN1CCOCC1,"inconclusive [inhibitor, single point]",–
CCc1ccc(NCCC(=O)c2ccc(Cl)cc2)cc1,active: 15.8 µM,–

Structure (SMILES),Potency,"activity change, negative = growth inhibition"
COc1ccc(/C=N/Nc2nc3ccccc3[nH]2)cc1OC,"inconclusive [inhibitor, single point]",–
Cn1c(=O)[nH]c(=O)c2c1nc(NCCc1ccccc1)n2Cc1ccc(F)cc1,"inconclusive [inhibitor, single point]",–
CN(C)Cc1c(O)ccc2c1O/C(=C\C=C\c1ccccc1)C2=O,–,inactive: -15%
Cc1nnc(SCC(=O)Nc2ccc(S(=O)(=O)N3CCCCC3)cc2)s1,"inconclusive [inhibitor, single point]",–
COc1ccc(S(=O)(=O)N2CCOCC2)cc1NC(=O)c1cc2c(s1)CCCC2,–,inactive: 2%
CCOC(=O)CSc1nc2cc(C(=O)N3CCCC3)ccc2c(=O)n1Cc1ccccc1,–,inconclusive: -31% [inhibitor]
Cn1cc(S(=O)(=O)N2CCOCC2)cc1C(=O)Nc1ccc(Cl)c(C(F)(F)F)c1,active: 23.1 µM,–
O=C1C=C(c2cccc(OCc3ccccc3)c2)C[C@@H](c2ccc3c(c2)OCO3)C1,–,inactive: -20.3%
COc1ccc(N(C=O)C(C(=O)Nc2c(C)cccc2C)c2ccccc2)cc1 (stereo unspecified),"inconclusive [inhibitor, partial curve]",–
CCOc1cc2c(cc1O)C(=NO)CC1C2CCC2(C)C(O)CCC12 (stereo unspecified),active: 0.0517 µM,–
OC(c1ccccn1)c1c[nH]c2ccccc12 (stereo unspecified),–,inactive: -21%
COC(=O)c1[nH]c2c(c1C)C(=O)CC(c1cc(OC)ccc1OC)C2 (stereo unspecified),active: 2.91 µM,–
COc1ccc(-c2nnc(NC(=O)c3ccco3)s2)cc1,–,inactive: 1.48%
O=C(Nc1nc(-c2ccc(F)c(F)c2)cs1)c1cc([N+](=O)[O-])ccc1N1CCOCC1,"inconclusive [inhibitor, single point]",–
Cc1ccc(O)c(NC(=O)c2cc(-c3ccccc3O)no2)c1,"inconclusive [inhibitor, single point]",–
Cc1cc(NC(=O)Nc2nnc(N(C)Cc3ccccc3)s2)ccc1Br,"inconclusive [inhibitor, partial curve, poor fit]",–
CN(C)c1ccc(CN2CCC(C(=O)NC(c3ccc(Cl)cc3)c3cnccn3)CC2)cc1 (stereo unspecified),active: 16.4 µM,–
COC(=O)c1c(NC(=O)CN2CCN(c3cccc(Cl)c3)CC2)sc(C)c1C,"inconclusive [inhibitor, single point]",–
CCOC(=O)c1cc2c(=O)n3cccc(C)c3nc2n(CC2CCCO2)c1=NC(C)=O (stereo unspecified),"inconclusive [inhibitor, single point]",–
Cc1cc(C)c2cc(C#N)c(NCCNC(=S)NCCCN3CCOCC3)nc2c1,"inconclusive [inhibitor, single point]",–
CCNc1nc(NCC)nc(SCCOC(=O)Nc2ccc(Cl)cc2Cl)n1,"inconclusive [inhibitor, single point]",–
Fc1cccc(Cl)c1CSc1ccc(-c2ccco2)nn1,–,inactive: -19.1%
CC(=O)Nc1ccc(S(=O)(=O)Oc2cccc(/C=C3\SC(N)=NC3=O)c2)cc1,"inconclusive [inhibitor, single point]",–

# Source: PubChem BioAssay AID686978 (National Center for Advancing Translational Sciences (NCATS), 2013)
